{"source": "paper PMC7819943", "about": "“Rice protein-binding microarrays: a tool to detect cis-acting elements near promoter regions in rice”", "note": "The other results are listed elsewhere or left out.", "data": [{"target": "T1, OsWOX13 (Oryza sativa, UniProt Q5QMM3 1-267)", "T1 sequence": "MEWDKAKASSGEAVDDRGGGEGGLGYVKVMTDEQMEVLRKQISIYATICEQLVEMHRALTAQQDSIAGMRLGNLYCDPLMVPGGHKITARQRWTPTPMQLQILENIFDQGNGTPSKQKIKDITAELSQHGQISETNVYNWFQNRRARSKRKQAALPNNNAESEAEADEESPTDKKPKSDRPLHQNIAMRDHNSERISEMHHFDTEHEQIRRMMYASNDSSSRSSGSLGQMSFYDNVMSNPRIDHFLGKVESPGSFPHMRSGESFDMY", "test": "protein-binding microarray (RPBM); PBS, 2% BSA, 51.3 ng/ul salmon testes DNA, 50 uM zinc acetate, 200 nM TF, 25 C, 1 h; high values mean tight binding", "settings": "protein: recombinant; tags: N-terminal polyhistidine and DsRed monomer fusion (pET32a); label: CyDye5-dUTP incorporated in the synthesized complementary strand; 3' TTTTT single-stranded linker to array surface; dsDNA, one strand shown", "procedure,_shortened": "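Binding signal is defined as the fluorescence intensity of each feature in arbitrary units, read on an Axon 4000B scanner. Transcription factors with N-terminal polyhistidine and DsRed fusions came from E. coli BL21-CodonPlus and were purified on Ni–NTA. They were incubated at 200 nM for 1 h at 25 °C on a custom Agilent array that had been made double-stranded with Cy5-dUTP, with 50 µM zinc acetate present, and the array was washed.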", "values": [{"sequence": "TAAGCCTAATTGCTCCACGATTTGATAATGTGGTGCTACACGGAGTCACCTAGTGCAG", "binding signal": "14500 fluorescence intensity (a.u.)"}, {"sequence": "ATAAATAGTAATTGACATTAAGAATGGGACCCACACTCTACGGAGTCACCTAGTGCAG", "binding signal": "53000 fluorescence intensity (a.u.)"}, {"sequence": "TTGGTTTAATCAATAAGCTTAATTTGCATGACAACTGAAGCGGAGTCACCTAGTGCAG", "binding signal": "31200 fluorescence intensity (a.u.)"}, {"sequence": "TATATATTTGATAATGGCAATCAATCCGTAGCAACTTCTGCGGAGTCACCTAGTGCAG", "binding signal": "15500 fluorescence intensity (a.u.)"}, {"sequence": "GGGTCTGTTAAGATTGATGCCAAGAGACATGCAATCATCCCGGAGTCACCTAGTGCAG", "binding signal": "5580 fluorescence intensity (a.u.)"}, {"sequence": "AACTAATTGCACAGTTTACATAAATCGCGAGACGAATCTTCGGAGTCACCTAGTGCAG", "binding signal": "24800 fluorescence intensity (a.u.)"}, {"sequence": "AAAACTATTAAATTTCAATTGGGCTAAAACTAGCACAAACCGGAGTCACCTAGTGCAG", "binding signal": "3860 fluorescence intensity (a.u.)"}, {"sequence": "TTCATTTGCTAATTAAGGACTCTTCTTTAATTTTGTCGCCCGGAGTCACCTAGTGCAG", "binding signal": "7630 fluorescence intensity (a.u.)"}, {"sequence": "TTTCTGATGAGACAATCATTGATGAAGTCAACTTCCCAATCGGAGTCACCTAGTGCAG", "binding signal": "23200 fluorescence intensity (a.u.)"}, {"sequence": "ATATATATATATATATATATATATATATATATGTATGTATCGGAGTCACCTAGTGCAG", "binding signal": "20300 fluorescence intensity (a.u.)"}, {"sequence": "TCTCTGCATTTGAATGACTAATTAGAGCGATTTTCTAGCTCGGAGTCACCTAGTGCAG", "binding signal": "3300 fluorescence intensity (a.u.)"}, {"sequence": "CCAAATGAATTTATTTTAATTTTCATATGCTTGTACAAATCGGAGTCACCTAGTGCAG", "binding signal": "7500 fluorescence intensity (a.u.)"}, {"sequence": "TTCCTGTAACTGGCATAACAATTGGTGCCCTGAACTTATGCGGAGTCACCTAGTGCAG", "binding signal": "9580 fluorescence intensity (a.u.)"}, {"sequence": "AAAATTAGTCTAATTTAAAATAGTTTGACTCGTAACCTGACGGAGTCACCTAGTGCAG", "binding signal": "13200 fluorescence intensity (a.u.)"}, {"sequence": "GGGGATTGGGAGTTTACACGAGGGAATTGATGATGAGATTCGGAGTCACCTAGTGCAG", "binding signal": "24400 fluorescence intensity (a.u.)"}, {"sequence": "AATTAATATTTAATTAATTATATGCTAATGAGCCTTCTCGCGGAGTCACCTAGTGCAG", "binding signal": "43600 fluorescence intensity (a.u.)"}, {"sequence": "GTGTATGGGGTCTGATTGCTTTGAGGCTTGCAGATGATGACGGAGTCACCTAGTGCAG", "binding signal": "7770 fluorescence intensity (a.u.)"}, {"sequence": "TAATATGTCCAATTATCCATGCAATCAAGCATCTAGAGTGCGGAGTCACCTAGTGCAG", "binding signal": "11400 fluorescence intensity (a.u.)"}, {"sequence": "ACTAATTAATCAAGTAAGTCATAGGTCATGGATTTTATTTCGGAGTCACCTAGTGCAG", "binding signal": "13800 fluorescence intensity (a.u.)"}, {"sequence": "CATGAAATAAATTTACAATTGATAAACAATTAGATGATGACGGAGTCACCTAGTGCAG", "binding signal": "16500 fluorescence intensity (a.u.)"}, {"sequence": "GTTAAATTAGTGCCATGTTTCTTCAGTTATGTTAATTACACGGAGTCACCTAGTGCAG", "binding signal": "19100 fluorescence intensity (a.u.)"}, {"sequence": "TTTCCAATCAGGTATCCAACTAAAGCAAATCCAATTAAAACGGAGTCACCTAGTGCAG", "binding signal": "3190 fluorescence intensity (a.u.)"}, {"sequence": "AGGTAATTGGAAGGCAATTCCTCCTTTATCTAACCAAATCCGGAGTCACCTAGTGCAG", "binding signal": "36700 fluorescence intensity (a.u.)"}, {"sequence": "ATATATATAATTAATTAAGGGACATAATTAGTAGTTGCCACGGAGTCACCTAGTGCAG", "binding signal": "31400 fluorescence intensity (a.u.)"}, {"sequence": "GATTCTAATGGATGAATTGATGGTGTGGCGTATGTGATAGCGGAGTCACCTAGTGCAG", "binding signal": "11500 fluorescence intensity (a.u.)"}, {"sequence": "TCCCTCTGTATCACGTTCTTTGATTGCGTTGCGTGACTGGCGGAGTCACCTAGTGCAG", "binding signal": "7020 fluorescence intensity (a.u.)"}, {"sequence": "CCTTAATTGCATGGTTTATGTGAGTTTATGGTACACATTTCGGAGTCACCTAGTGCAG", "binding signal": "26200 fluorescence intensity (a.u.)"}, {"sequence": "TTTATCAATTAAACGACAATTTGGAAGCCTTCTTATATTTCGGAGTCACCTAGTGCAG", "binding signal": "13800 fluorescence intensity (a.u.)"}, {"sequence": "TGATCTGATTGAACAGTCAATCACAGATTCACAGTAGGACCGGAGTCACCTAGTGCAG", "binding signal": "62500 fluorescence intensity (a.u.)"}, {"sequence": "TTACGCTATGATTTAATAATGTGATGCTACAGTAAACATTCGGAGTCACCTAGTGCAG", "binding signal": "4620 fluorescence intensity (a.u.)"}, {"sequence": "TAGAGCTAAATTCTGAAATTGACAAGTACATCAACAATACCGGAGTCACCTAGTGCAG", "binding signal": "3550 fluorescence intensity (a.u.)"}, {"sequence": "CTAGCTTTGAGGTGGAGGTGGTGGTGGAGGAGGAGGAGGACGGAGTCACCTAGTGCAG", "binding signal": "3340 fluorescence intensity (a.u.)"}, {"sequence": "TGGTATGATTGAAAATGACATGTAAGTGAACATGCCTCTACGGAGTCACCTAGTGCAG", "binding signal": "39500 fluorescence intensity (a.u.)"}, {"sequence": "CATGTTCCTTAATTAATTGATTCCTCTGTGCATGCATATACGGAGTCACCTAGTGCAG", "binding signal": "29600 fluorescence intensity (a.u.)"}, {"sequence": "AAGTAGATGGAGTAATTAATACTCCCTCCTTCCCTAAATGCGGAGTCACCTAGTGCAG", "binding signal": "6090 fluorescence intensity (a.u.)"}, {"sequence": "GATAAATCTAAATCTTAATGTATACCAACTGATTTTAGGTCGGAGTCACCTAGTGCAG", "binding signal": "9540 fluorescence intensity (a.u.)"}, {"sequence": "GTGCCTTTTAATTTTAACTGGTACCTAGTGCTTATTAATTCGGAGTCACCTAGTGCAG", "binding signal": "3180 fluorescence intensity (a.u.)"}, {"sequence": "AATTAATTGAGCGGCGGCGGCTGGGACTATATATAGAGAGCGGAGTCACCTAGTGCAG", "binding signal": "28800 fluorescence intensity (a.u.)"}, {"sequence": "CCACAATTCTGATTAGATTTTAACTCAACTATCATGGTCTCGGAGTCACCTAGTGCAG", "binding signal": "26100 fluorescence intensity (a.u.)"}, {"sequence": "GACTAACACCCTAGACTGATTAATCAAAGCATTGTGCATGCGGAGTCACCTAGTGCAG", "binding signal": "16800 fluorescence intensity (a.u.)"}, {"sequence": "AGTTGATTTTAAAATTTAGTTTTAAGATTTAAATTTTGGTCGGAGTCACCTAGTGCAG", "binding signal": "35300 fluorescence intensity (a.u.)"}, {"sequence": "AGGAATCCTGATTTATAAAGCTCAACAGTGAGCGACAAGGCGGAGTCACCTAGTGCAG", "binding signal": "4910 fluorescence intensity (a.u.)"}]}]}
